# Several values for one entry are separate records, joined by “and”; a condition that tells them apart may be missing. Equal values may be shown once. Inconclusive results, whose numbers are uncertain, are shown with a selection of clear calls. Potencies beside an inconclusive call are fits to weak or partial responses and may not hold up. Activity calls are given as the source filed them. Calls follow the shape of the dose curve; as a rule, active = well fitted activation curve with a large enough effect in the signal ratio in the repeat runs (not every such curve was filed as active); inconclusive = weak or mixed curves; inactive = flat fitted curve, though single readings scatter; the % refers to the signal ratio.
# Assay: qHTS assay to identify small molecule agonists of the TGF-beta/Smad signaling pathway (AID 1346859)
# Conditions: SBE-bla HEK293T, TGF-beta/Smad beta-lactamase reporter, 5 h; activation: at 76.8 µM (top of the series) unless noted
# Description: U.S. Tox21 Program National Center for Advancing Translational Sciences [NCATS] NIH Chemical Genomics Center [NCGC] U.S. Environmental Protection Agency [EPA] National Institutes of Environmental Health Sciences [NIEHS] National Toxicology Program [NTP] U.S. Food and Drug Administration [FDA] Tox21 Assay Overview: Transforming growth factor beta (TGF-beta) superfamily consists of a large number of structurally related dimeric proteins that act as hormones or local mediators in regulating a wide range of biological functions. This superfamily includes TGF-betas themselves, the bone morphogenetic proteins (BMPs) and the activins. These ligands induce oligomerization of serine/threonine receptor kinases and phosphorylate the cytoplasmic signaling molecules of Smad protein family. CellSensor SBE-bla HEK 293T cell line (Life Technologies, Carlsbad, CA), responsive to TGF-beta was used to screen Tox21 10K compound library for identification of agonists/antagonists of the Smad signaling pathway. This cell line contains a beta-lactamase reporter gene under control of the Smad binding element (SBE) stably integrated into HEK 293T cells.
# Tox21 Assay Protocol Summary: SBE-bla HEK 293T cells were dispensed at 4,000/well in 6 uL of assay medium into black wall/clear-bottom 1536-well plates using a Multidrop Combi (ThermoFisher Scientific, Waltham, MA) dispenser. After the assay plates were incubated at 37 C and 5% CO2 for an overnight, 23 nL of compounds dissolved in DMSO, positive controls or DMSO only was transferred to the assay plate by a Pintool station (Kalypsys, San Diego, CA). The assay plates were incubated at 37 C and 5% CO2 for 5 hr. One uL of LiveBLAzer B/G FRET substrate (Life Technologies) was added using a Flying Reagent Dispenser (Aurora Discovery, San Diego, CA) and the plates were incubated at room temperature for 2 hr. Fluorescence intensity (405 nm excitation, 460 nm and 530 nm emissions) was measured using an Envision plate reader (PerkinElmer, Shelton, CT).
# % is scaled to controls: 0 for no effect and ±100 for the full control effect; potency is read from the fitted curve at half-maximal effect; tags tell the direction and shape of the fitted curve or compound fluorescence and quenching.
Structure (SMILES),Potency,activation
IC(I)=C(I)I,inactive,
COCCOCCO,"inconclusive: 19.5 µM [rising, partial curve, poor fit]",
CC(C)c1c(CN(C)C(C)Cc2ccccc2)n(C)n(-c2ccccc2)c1=O (stereo not given),"inconclusive: 19 µM [rising, partial curve]",
COc1cccc2c1C(=O)c1c(O)c3c(c(O)c1C2=O)C[C@@](O)(C(=O)CO)CC3OC1CC(N2CCOC(OC)C2)C(O)C(C)O1 (stereo not given in full),"inconclusive: 3.38 µM [rising, partial curve, poor fit]",
Nc1nc(N)c(N)c(N)n1,,inconclusive: 22%
C#C[C@]1(O)CC[C@H]2[C@@H]3CCC4=CC(=O)CC[C@]4(C)[C@H]3CC[C@@]21C,inactive,
II,inactive,
C[C@]12CC[C@H]3[C@@H](CC[C@@]45O[C@@H]4C(O)=C(C#N)C[C@]35C)[C@@H]1CC[C@@H]2O,"inconclusive: 13.8 µM [rising, partial curve] and inconclusive: 10.7 µM [rising, partial curve]",
CC(=O)[O-].CC(=O)[O-].[Hg+2],"inconclusive: 6.92 µM [rising, partial curve]",
CC[C@H](C)[C@H]1O[C@]2(C=C[C@@H]1C)C[C@@H]1C[C@@H](C/C=C(\C)[C@@H](O[C@H]3C[C@H](OC)[C@@H](O[C@H]4C[C@H](OC)[C@@H](NC)[C@H](C)O4)[C@H](C)O3)[C@@H](C)/C=C/C=C3\CO[C@@H]4[C@H](O)C(C)=C[C@@H](C(=O)O1)[C@]34O)O2,"inconclusive: 27.5 µM [falling, full curve, poor fit]",
CC[N+]1(C)CCCC1,"inconclusive: 13.8 µM [rising, full curve, poor fit]",
CC/C(=N\OC/C=C/Cl)C1=C(O)CC(C2CCOCC2)CC1=O (stereo not given),inactive,
CCC(C)(NC(=O)c1cc(Cl)c(C)c(Cl)c1)C(=O)CCl (stereo not given),"inconclusive: 6.96 µM [rising, partial curve]",
CCOP(=S)(NC(C)C)Oc1ccccc1C(=O)OC(C)C (stereo not given),"inconclusive: 49 µM [rising, partial curve, poor fit]",
O=C(O)C(F)(F)C(F)(F)C(F)(F)C(F)(F)C(F)(F)C(F)(F)C(F)(F)C(F)(F)C(F)(F)F,inactive,
CO/C=C(/C(=O)OC)c1ccccc1Oc1cc(Oc2ccccc2C#N)ncn1,"inconclusive: 52.2 µM [rising, partial curve]",
Clc1ccc(C(OCCN2CCCCC2)c2ccccc2)cc1 (stereo not given),"inconclusive: 16.9 µM [rising, partial curve, poor fit]",
CCOP(=O)(O)OCC (tested in a mixture with another compound),"inconclusive: 13.7 µM [rising, partial curve]",
CCC(=O)Nc1ccc(Cl)c(Cl)c1,inactive,
O=[Se]=O,"inconclusive: 4.86 µM [rising, partial curve]",

Structure (SMILES),Potency,activation
CN(N=O)c1ccccc1,inactive,
CSC1=N[C@@](C)(c2ccccc2)C(=O)N1Nc1ccccc1,inactive,
CN(C)CCC#N,inactive,
C/C(=C\c1ccccc1)[N+](=O)[O-],"inconclusive: 21.9 µM [rising, full curve]",
O=[N+]([O-])O.O=[N+]([O-])O.[Cd],"inconclusive: 61.6 µM [rising, partial curve, poor fit]",
FC(F)(F)c1cccc(C2=CCN(CCc3ccc4ccccc4c3)CC2)c1,inactive,
ClCc1ccc(Cl)cc1Cl,"inconclusive: 61.6 µM [activator, partial curve, poor fit]",
C=CCOC(Cn1ccnc1)c1ccc(Cl)cc1Cl (stereo not given),"inconclusive: 27.6 µM [falling, partial curve, poor fit]",
C#C[C@]1(O)CC[C@H]2[C@@H]3CCC4=CC(=O)CCC4=C3C=C[C@@]21CC,"inconclusive: 21.3 µM [rising, partial curve, poor fit]",
NP(N)(=O)NC(=O)c1ccc(F)cc1,inactive,
N#CC(CCc1ccc(Cl)cc1)(Cn1cncn1)c1ccccc1 (stereo not given),"inconclusive: 49 µM [rising, partial curve]",
CCCCON=O,inactive,
Cc1ccccc1O,inactive,
Nc1ccccc1C(=O)OC/C=C/c1ccccc1,inactive,
CC(C)(C)c1cc([N+](=O)[O-])cc(C(C)(C)C)c1O,"inconclusive: 49 µM [rising, partial curve, poor fit]",
O=C(c1ccccc1)C(Cl)Cl,"inconclusive: 43.6 µM [falling, partial curve]",
CCCCC1C(=O)NC(=O)N(C2CCCCC2)C1=O (stereo not given),inactive,
O=C1CCCO1,inactive,
O=C(NCc1cccnc1)Nc1ccc([N+](=O)[O-])cc1,"inconclusive: 54.9 µM [rising, single point]",
CCCCCCCCCCCCCC[P+](CCCCCC)(CCCCCC)CCCCCC (tested in a mixture with another compound),inconclusive: 61.7 µM [single point],

# Source: PubChem BioAssay (Tox21)
